Measurements reported in the supplement of paper PMC3334620.
Over roughly 33,000 sequences, “E-score (-0.5 to 0.5)” has its median near -0.032; the highest 2% begin near 0.36. The list shows a part of the results.

Molecular target: T1, Sko1 (UniProt Q02100)
T1 sequence: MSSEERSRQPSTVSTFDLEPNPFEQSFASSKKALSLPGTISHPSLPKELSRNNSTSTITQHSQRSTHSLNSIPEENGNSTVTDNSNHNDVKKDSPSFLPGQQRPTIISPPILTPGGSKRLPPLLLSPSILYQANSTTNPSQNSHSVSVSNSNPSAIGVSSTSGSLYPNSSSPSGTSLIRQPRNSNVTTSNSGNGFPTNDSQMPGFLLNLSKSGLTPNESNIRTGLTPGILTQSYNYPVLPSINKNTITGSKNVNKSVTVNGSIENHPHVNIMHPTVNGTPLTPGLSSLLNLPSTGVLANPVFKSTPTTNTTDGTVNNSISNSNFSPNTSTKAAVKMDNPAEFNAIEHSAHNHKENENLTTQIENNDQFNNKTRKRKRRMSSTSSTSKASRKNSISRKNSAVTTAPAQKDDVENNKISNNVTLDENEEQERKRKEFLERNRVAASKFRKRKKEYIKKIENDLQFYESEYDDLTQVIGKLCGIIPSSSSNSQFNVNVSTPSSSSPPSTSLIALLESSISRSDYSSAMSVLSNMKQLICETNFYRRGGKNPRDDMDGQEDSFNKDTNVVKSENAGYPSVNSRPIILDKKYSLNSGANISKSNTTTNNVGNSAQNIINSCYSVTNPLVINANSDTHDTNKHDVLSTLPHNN
Assay: PBM E-score (8-mer binding enrichment) (E-score (-0.5 to 0.5)); higher = stronger / more preferred TF binding; most listed sequences are background and not binding sites
Conditions: protein concentration: 200 nM; construct: GST-full length
Procedure, shortened: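 Detection of bound protein used fluorescent anti-GST, with scans normalised by masliner. The proteins were GST-tagged yeast transcription factors applied at about 100-200 nM to universal all-10-mer Agilent arrays made double-stranded by primer extension. Each ungapped eight-base word, pooled with its reverse complement, was scored with an E-score from the Universal PBM Analysis Suite.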

Sequence | PBM E-score
CACTCACC | -0.112
AGAAGAAT | 0.0232
AGTCCCCC | -0.312
ATGTCCCC | -0.167
ATTACTTC | 0.105
CCTTTGGA | -0.296
CTCTTAAA | 0.0524
CTTATATC | 0.207
AGGATAGA | -0.0612
AGATCCCC | -0.171
CCTAATCA | 0.0917
AGCCCATG | -0.0868
ATGGCATA | 0.126
AGTCTCGG | -0.24
CGACTATA | 0.197
AGCCCTAA | -0.0892
ACACACGA | 0.213
CTATCCAC | -0.127
ACTGGATC | -0.116
ATACTGCA | -0.00618
CGCCACTC | -0.102
CAGATCAG | -0.00687
AAAGCGCC | -0.172
AAATGAAT | 0.0285
AGATAATA | 0.164

Sequence | PBM E-score
CGTTCCTA | 0.047
AGAGAAAT | 0.15
AAACGTGG | 0.213
GAGGTGCA | -0.0175
GCTCCTAA | -0.0432
AGGATCCC | -0.148
CCCTCGCA | -0.183
GGTCAAAC | -0.0302
GCAACTGA | 0.0735
GCTCAGAA | -0.0677
GTCGGAAC | -0.0708
ACACGCAG | 0.184
GGGATAAA | -0.0675
CCTTTTGC | -0.208
ACTTTAAG | 0.156
GCATCCGC | -0.0501
ACGCCTGC | -0.173
ATCGGCCC | -0.133
AAACAGAA | 0.0315
CCTCACTA | 0.00316
TATTAGGA | 0.126
CTTCCAGA | -0.114
CTCATACA | 0.0729
CGGCGTAA | 0.175
AATTCCAA | 0.0336

Sequence | PBM E-score
GCATGTGA | 0.00111
GTCGCATA | 0.267
GACATGCA | 0.0403
ATGGGTCG | -0.179
CGACAGCA | -0.0646
CGACCTTC | -0.189
AGGCCTTC | -0.0878
ACCTGAGT | -0.0461
AGATACAG | 0.0229
ACTGGCAG | -0.222
GATCTCGA | -0.11
GGACGGTA | -0.00632
AGGACGAT | 0.05
CGCGCATA | 0.0284
AGGAACCG | -0.113
CACGCGAC | 0.213
ATCGGAAT | 0.0673
GCCTGTCA | -0.157
CCTCTGGA | -0.152
ACATAAGG | 0.199
CCGTTCGC | -0.129
AACTGACG | 0.363
ACACCCTA | 0.0359
AAGCAACC | 0.133
AGTTGAAG | -0.187

Sequence | PBM E-score
CCGCAGCC | -0.206
CACATAAC | 0.0655
AACACATC | 0.105
GGTTACTA | -0.155
AGAGCGCT | -0.0154
ATCCGACG | 0.156
CCTTTAAA | 0.102
GCGACGAA | 0.0338
ACGTAAAA | 0.463
AAGCAATG | 0.0184
TAAGGCTA | -0.0609
AAGAGATT | 0.0256
ACCTTACA | -0.0158
CCGCACGC | -0.0325
CCCTTGTC | -0.249
GGAGATAA | 0.0184
ATAGTGCC | -0.161
CTAATGCC | -0.0148
GGTATCGA | -0.0372
ACCTCACG | 0.124
AGAGGATG | -0.0999
AACACAGG | -0.237
CGTGAACC | -0.0441
CTTCGGTA | 0.0125
AGTTCGAA | 0.0291

Sequence | PBM E-score
GTAACAAA | 0.235
CACTGACC | -0.26
CTCTCAAC | -0.00822
GCCTCTTA | -0.13
AGGCTAAG | -0.147
CGATTACC | -0.0987
AGACAAAT | 0.141
CTTCGCTA | 0.078
TCAGAGAA | 0.00926
CATATAAG | 0.0398
ACCGTATC | 0.00217
CTTCATAA | 0.0763
AATACCGC | -0.0868
CCACTAGG | -0.399
CATTGACC | 0.114
GGGTCCTA | -0.285
ACTTCCAT | 0.105
GGTCGCAC | -0.0515
CGACAACA | 0.147
ATTTTCCA | 0.109
GCTGTGCC | -0.124
CCAATAAG | -0.0069
GAGCTACC | -0.212
GAGAAGCC | -0.267
TGCCCGAA | 0.0767

Sequence | PBM E-score
GTATCCGA | -0.0312
CCACGGAA | 0.00634
GAAGTCGC | -0.139
ACGCCTTA | -0.00766
CGTCAGTA | 0.327
AAAACGAG | 0.065
CCGGCGAG | -0.247
GAGGGAGC | -0.34
AGGTTTAA | -0.0197
TGATATAA | 0.238
ATCCCCTG | -0.173
ACTGCTTG | -0.192
ACTACAGA | 0.228
GTCATCAC | 0.368
AATATTAG | 0.222
GCCTCTCC | -0.41
GAACACAA | 0.0558
ATCGCGCA | 0.0939
AAGCCATC | -0.0222
ATGCTGAA | 0.0457
CAGCCGAC | -0.266
ATTAGTTA | 0.262
CACGTCCA | 0.254
AGACCTGA | -0.227
TCCTTAGA | -0.103

Sequence | PBM E-score
AGACTATC | -0.0534
ATTCAGTG | -0.116
TAGGGAGA | -0.0896
AGGCGTGC | -0.0649
ACAGTAGG | -0.082
AGCGCACG | 0.0406
AACACTGA | 0.038
GCAGAGCC | -0.218
CTATTGCC | -0.263
AACTCATC | 0.118
GGGCTAAC | -0.164
CGGCGTGC | -0.177
AGAATCAA | -0.0775
CCGTTCAA | -0.222
AACGGAAG | -0.0959
GTAATCCA | 0.193
CACGCTAG | -0.052
CCGAAACC | -0.255
ACTCCATG | -0.171
GTGCTACA | 0.0645
CATCTGCA | 0.00281
GGATCCCC | -0.403
CTTGGCCC | -0.181
AGCTTGTG | -0.00367
GTTGCCCA | 0.00341

Sequence | PBM E-score
TTCGAAAA | 0.187
AGGATGAG | -0.162
TAGCAGAA | 0.0771
ATTTAGCA | 0.133
CCTCTGGC | -0.239
AGGGAGAC | -0.192
ACGTGGAA | 0.311
AAGTAGTA | 0.0972
ATACTCCC | 0.0176
ACCAAGAA | 0.172
CGCGAATC | 0.137
CAATGAAG | 0.0878
AATAGTAT | 0.161
ATGGGGCC | -0.419
AACAGAGA | -0.0711
CTATGTTC | -0.0134
CCATCAAC | 0.0412
AGACCACT | 0.0537
AATAAGTC | 0.0453
GCCAGCGA | -0.296
ACACTAGC | -0.0734
AACGGTTA | -0.175
AACTTATT | 0.123
CGGACACG | 0.0454
AACTGTAG | -0.241

Sequence | PBM E-score
AAGTATCC | -0.0882
CGGGGGTC | -0.208
AAATACAA | 0.218
GCCTGTAC | -0.103
CACTTCGC | 0.127
GGGAACCC | -0.24
CATGAAAA | 0.088
CGACGAGA | -0.0238
CCGGCTCG | -0.183
TACATCAA | 0.255
CCGACTCG | -0.167
AGATTTGG | -0.168
CACAACCA | -0.00372
GAGTGGGC | -0.261
AATTCTGC | 0.0671
AAGCGGCG | -0.118
CTATCGAG | -0.0846
CCGTACTC | -0.132
GGTCACCA | -0.28
